Data: PubChem BioAssay AID651820 (National Center for Advancing Translational Sciences (NCATS), 2012)
Among all 340,000 compounds or so, about 12,000 (3.5%) were called active. The inconclusive results got no clear call from the source; some entries with a clear call stand among them for comparison. The call rests on the fitted dose curve; in most records, active means well fitted inhibition curve with a large enough effect; inconclusive means small, poorly fitted or top-dose-only effect, or another doubt; inactive means no such curve, though single readings can be large or run the other way. No potency is given beside an inconclusive call; the fits are too rough.

experiment: qHTS Assay for Inhibitors of Hepatitis C Virus (HCV); details: Huh7.5.1 HCVcc-Cre (HCVcc is cell-culture hepatitis C virus) infection, luciferase reporter, 44 h; series mostly up to 41.8 µM
Method in brief: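 A cell-based infection assay in which seeded cells (1,000 per well) receive test compound after 4 h, are inoculated with HCVcc-Cre at approximately 0.5 moi, and are incubated 44 h before luminescence detection.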
Potency means the concentration at half of the fitted maximal effect; tags describe the fitted curve by direction and shape.

Row | SMILES | Potency
1 | CCc1nc2ccccc2c(C(=O)OCC(=O)N(CCOC)c2c(N)n(Cc3ccccc3)c(=O)[nH]c2=O)c1C | active: 14.1 µM
2 | O=C(Nc1nc2ccc(F)cc2s1)c1cccc(S(=O)(=O)N2CCc3ccccc32)c1 | inconclusive [inhibitor, partial curve]
3 | Cc1noc(C)c1C(=O)OCC(=O)c1cc(C)n(Cc2ccccc2Cl)c1C | active: 11.2 µM
4 | COC(=O)c1ccccc1NC(=O)Cn1nnc(-c2ccc(OC)cc2)n1 | inconclusive [inhibitor, single point]
5 | CCCCCCSc1ccc([C@@H]2[C@H]3C(=O)N(CC)C(=O)[C@H]3[C@]3(C(=O)OC)CCCCN23)cc1OC | inactive
6 | O=C(COC(=O)C1CCN(c2ccc(C(F)(F)F)cn2)CC1)NCc1ccccc1 | inactive
7 | CN(CC(=O)Nc1ccccc1Br)C(=O)c1ccccc1OCc1ccc(Cl)cc1 | inconclusive [inhibitor, full curve, poor fit]
8 | CCOC(=O)c1ccc2c(c1)N(CC#N)C(=O)C(C)(C)O2 | inactive
9 | CCc1ccc(Nc2nc(C)cc(C)n2)cc1 | inconclusive [inhibitor, single point]
10 | CCCCCCCCCCOC(=O)Cn1c(COc2ccccc2C)[n+](C)c2ccccc21 | inconclusive [inhibitor, single point]
11 | COc1cccc(/C=N/NC(=O)c2cccc([N+](=O)[O-])c2)c1OS(=O)(=O)c1ccccc1 | inconclusive [inhibitor, partial curve]
12 | O=C(Nc1ccnc(-c2cccnc2)n1)c1cccc(Cl)c1Cl | inconclusive [inhibitor, partial curve, poor fit]
13 | CCC(=O)N1CCN(c2ccccc2NC(=O)COc2ccccc2Cl)CC1 | inactive
14 | CCc1noc(C)c1C(=O)Nc1nc(-c2ccc(Cl)cc2Cl)cs1 | active: 10 µM
15 | CCCc1nc2ccccc2c(C(=O)OCC(=O)NCc2ccc3c(c2)OCO3)c1CC | inconclusive [inhibitor, partial curve]
16 | Cc1ccc(N(C(=O)c2csnn2)C(C(=O)NC2CCCCC2)c2ccccn2)cc1C (stereo not drawn) | inconclusive [inhibitor, single point]
17 | COCCOc1cc(NCc2ccccc2)c2ncn(C(C)C)c2c1 | inconclusive [inhibitor, partial curve]
18 | COc1ccccc1NC(=S)N(Cc1ccco1)Cc1cc2cccc(C)c2[nH]c1=O | inconclusive [inhibitor, single point]
19 | Cc1ccc(NC(=O)c2oc3ccccc3c2COC(C)C)cc1S(=O)(=O)N1CCOCC1 | inconclusive [inhibitor, full curve]
20 | Cc1cc(CSc2ccc(Cl)cc2)ccc1N | active: 3.98 µM
21 | Cc1n[nH]c(C)c1S(=O)(=O)N1CCCC(C(=O)N2CCN(c3ccc(Cl)cc3)CC2)C1 (stereo not drawn) | inconclusive [inhibitor, single point]
22 | Cc1ccc(S(=O)(=O)n2c(CN3CCCC(C)C3)nc3ccccc32)cc1 (stereo not drawn) | inconclusive [inhibitor, full curve]
23 | C[C@@H]1CN([C@@H](C)CO)C(=O)c2cc(NC(=O)Nc3ccccc3)ccc2O[C@H]1CN(C)C(=O)Nc1cccc2ccccc12 | inconclusive [inhibitor, partial curve]

Row | SMILES | Potency
24 | CCc1ccc2oc(C(=O)Nc3cccnc3)c(C)c2c1 | inconclusive [inhibitor, partial curve]
25 | Cc1[nH]c2ccccc2c1/C=C/C(=O)c1ccccc1 | inconclusive [inhibitor, partial curve]
26 | COc1ccccc1CNC(=O)CN(C)S(=O)(=O)c1ccc(F)cc1 | inactive
27 | Cc1noc(C)c1COc1ccccc1C(=O)N(C)Cc1ccc(C(C)(C)C)cc1 | inconclusive [inhibitor, single point]
28 | COc1ccccc1NS(=O)(=O)c1cc(NC(=O)c2ccncc2)ccc1N1CCCC1 | inconclusive [inhibitor, single point]
29 | CC(=O)c1cccc(N/C=C\C(=O)c2ccc(C)cc2)c1 | inactive
30 | Cc1cc(N2CCN(C(=O)c3ccco3)CC2)n2nc(-c3cccc(F)c3)cc2n1 | active: 10 µM
31 | C=CCn1c(SCC(=O)Nc2ccc(C(=O)OCC)cc2)nnc1-c1cccs1 | inconclusive [inhibitor, partial curve, poor fit]
32 | CCN(CC(=O)Nc1c(F)cccc1F)C(=O)CCNC(=O)c1ccc([N+](=O)[O-])cc1 | inactive
33 | Cc1cc(C(=O)N/N=C2\CCCc3ccccc32)c(C)o1 | inactive
34 | O=S(=O)(c1ccc2nc(-c3ccccc3)[nH]c2c1)N1CCN(c2cccc(Cl)c2)CC1 | inconclusive [inhibitor, partial curve]
35 | CCOc1ccccc1OCC(=O)OCC(=O)c1c(N)n(CC(C)C)c(=O)n(C)c1=O | inconclusive [inhibitor, partial curve]
36 | COc1ccc(Nc2nc(N)c([N+](=O)[O-])c(N3CCN(C)CC3)n2)cc1 | inactive
37 | COc1ccc(-c2csc(NC3CCCCC3)n2)c(OC)c1 | inconclusive [inhibitor, partial curve]
38 | Cc1cc(/C=N/n2cnnc2)c(C)n1-c1ccc(OCc2ccc(F)cc2)cc1 | active: 11.2 µM
39 | Cc1ccccc1N1C(=O)CSC1=C(C#N)C#N | inconclusive [inhibitor, single point]
40 | COC(=O)c1cn(-c2ccc(Cl)cc2)c(=O)c2ccccc12 | inconclusive [inhibitor, single point]
41 | COCCNC(=S)N1CCC(c2nc(-c3ccc(N(C)C)cc3)no2)CC1 | inactive
42 | CCC(C)c1ccc(NC(=S)NC2CCN(Cc3ccccc3)CC2)cc1 (stereo not drawn) | active: 10 µM
43 | O=c1c2ccccc2nc(/C=C/c2ccc3c(c2)OCO3)n1-c1ccccc1 | inconclusive [inhibitor, single point]
44 | c1ccc2c(c1)[nH]c1c(N3CCC4(CC3)OCCO4)ncnc12 | active: 7.08 µM
45 | Cc1cc(C(=O)CSc2nnc(Nc3ccccc3)s2)c(C)n1CC1CCCO1 (stereo not drawn) | inconclusive [inhibitor, single point]
46 | CCCCNC(=O)CSc1nc2ccccc2c(=O)n1CC1COc2ccccc2O1 (stereo not drawn) | active: 2.82 µM

Row | SMILES | Potency
47 | Fc1cccc(CN2CCN3CCCC3C2C2CCCCC2)c1 (stereo not drawn) | inconclusive [inhibitor, single point]
48 | O=C(c1cccc(Cl)c1)N1CCCC(c2ccc(Cl)cc2)=N1 | active: 7.94 µM
49 | CCC1SC2=NC(C)=C(C(=O)OCCOC)C(c3ccc(C(=O)OC)cc3)N2C1=O (stereo not drawn) | inconclusive [inhibitor, single point]
50 | Cc1nc(-c2ccccn2)nc(SCC(=O)c2ccc(F)cc2)c1Cl | inconclusive [inhibitor, single point]
51 | Fc1ccc(-c2cc(C(F)(F)F)nc(-n3cccn3)n2)cc1 | inconclusive [inhibitor, partial curve]
52 | CC(C)C(NS(=O)(=O)c1c(Cl)cccc1Cl)C(=O)OCC(=O)c1c[nH]c2ccccc12 (stereo not drawn) | inconclusive [inhibitor, single point]
53 | C=CCN(CC=C)c1ncnc2[nH]ncc12 | inactive
54 | Cc1ccc2nsnc2c1S(=O)(=O)Nc1cccc2nsnc12 | inconclusive [inhibitor, single point]
55 | CCc1cc(CNC(=O)CC2C(=O)NCCN2Cc2ccc(-c3ccccc3)cc2)on1 (stereo not drawn) | inactive
56 | COc1ccc(-n2c(SCc3ccc([N+](=O)[O-])cc3)nnc2-c2ccc(C)cc2)cc1 | inconclusive [inhibitor, single point]
57 | C=C(C)Cn1c(N2CCN(c3ccc(OC)cc3)CC2)nc2c1c(=O)n(C)c(=O)n2C | inconclusive [inhibitor, single point]
58 | Cc1ccccc1/C=C1\C(=O)Nc2ccc(F)cc21 | inactive
59 | N#Cc1ccccc1-n1c(N)c(C(=O)N2CCCC2)sc1=S | inconclusive [inhibitor, single point]
60 | COc1ccc([C@H]2CC(=O)C=C(c3ccccc3)C2)cc1OC | inconclusive [inhibitor, single point]
61 | CCOC(=O)[C@H]1[C@H]2COc3ccc(OC)cc3[C@@H]2N2C(=O)c3cc(C)ccc3NC(=O)[C@@]12C | inactive
62 | CCOC(=O)C1=C(C)NC(=O)NC1c1ccc(-c2ccc(Cl)cc2)o1 (stereo not drawn) | inconclusive [inhibitor, single point]
63 | CCOC(=O)c1cnc2ccc(OCC)cc2c1N1CCN(c2ccccc2)CC1 | inconclusive [inhibitor, single point]
64 | O=C(COC(=O)c1cccs1)Nc1nnc(-c2ccccc2)o1 | inconclusive [inhibitor, partial curve, poor fit]
65 | CCCn1nc2cc(C(=O)NCc3ccccc3OC)ccc2c1OCC | inconclusive [inhibitor, full curve]
66 | CCCN(CCC)CC(O)Cn1c2ccccc2c2ccccc21 (stereo not drawn) | inconclusive [inhibitor, partial curve, poor fit]
67 | Cc1ccnc(NC(=O)c2cc([N+](=O)[O-])cc([N+](=O)[O-])c2)c1 | inactive
68 | COc1ccc(S(=O)(=O)N(CC(=O)N2CCN(C)CC2)C2CCCCC2)cc1OC | inconclusive [inhibitor, single point]
